From the CheMixHub viscosity set
± gives the uncertainty stated by the source. The source gives many values for each of these; only a part stands here.

Assay: xn = mol fraction of the nth substance listed

For `C1COCCO1` + O, the viscosity (298.15 K, 101 kPa, x2 = 0.188) was 1.26 ± 0.03 mPa·s, the viscosity (298.15 K, 101 kPa, x2 = 0.342) was 1.41 ± 0.04 mPa·s and the viscosity (298.15 K, 101 kPa, x2 = 0.35) was 1.442 ± 0.034 mPa·s. It also gave a viscosity (298.15 K, 101 kPa, x2 = 0.5443) of 1.7 ± 0.1 mPa·s, a viscosity (298.15 K, 101 kPa, x2 = 0.55) of 1.786 ± 0.042 mPa·s and a viscosity (298.15 K, 101 kPa, x2 = 0.68) of 1.976 ± 0.046 mPa·s. The viscosity (298.15 K, 101 kPa, x2 = 0.72) was 2.023 ± 0.047 mPa·s, the viscosity (298.15 K, 101 kPa, x2 = 0.77) was 1.987 ± 0.046 mPa·s and the viscosity (298.15 K, 101 kPa, x2 = 0.8) was 1.958 ± 0.046 mPa·s. The viscosity (298.15 K, 101 kPa, x2 = 0.83) was 1.914 ± 0.045 mPa·s, the viscosity (298.15 K, 101 kPa, x2 = 0.86) was 1.835 ± 0.043 mPa·s and the viscosity (298.15 K, 101 kPa, x2 = 0.88) was 1.697 ± 0.04 mPa·s. It also gave a viscosity (298.15 K, 101 kPa, x2 = 0.92) of 1.518 ± 0.036 mPa·s, a viscosity (298.15 K, 101 kPa, x2 = 0.95) of 1.297 ± 0.031 mPa·s and a viscosity (298.15 K, 101 kPa, x2 = 0.98) of 1.095 ± 0.027 mPa·s. It also gave a viscosity (298.15 K, 101.3 kPa, x1 = 0.0486) of 1.3 ± 0.061 mPa·s, a viscosity (298.15 K, 101.3 kPa, x1 = 0.1199) of 1.74 ± 0.061 mPa·s and a viscosity (298.15 K, 101.3 kPa, x1 = 0.2347) of 1.98 ± 0.062 mPa·s. It also gave a viscosity (298.15 K, 101.3 kPa, x1 = 0.4498) of 1.73 ± 0.061 mPa·s, a viscosity (298.15 K, 101.32 kPa, x1 = 0.02221) of 1.074 ± 0.0066 mPa·s and a viscosity (298.15 K, 101.32 kPa, x1 = 0.04863) of 1.281 ± 0.0077 mPa·s. It also gave a viscosity (298.15 K, 101.32 kPa, x1 = 0.08057) of 1.504 ± 0.0089 mPa·s, a viscosity (298.15 K, 101.32 kPa, x1 = 0.12) of 1.709 ± 0.01 mPa·s and a viscosity (298.15 K, 101.32 kPa, x1 = 0.1698) of 1.894 ± 0.011 mPa·s. For the same compound, the viscosity (298.15 K, 101.32 kPa, x1 = 0.2347) was 1.989 ± 0.012 mPa·s, the viscosity (298.15 K, 101.32 kPa, x1 = 0.2949) was 1.961 ± 0.012 mPa·s and the viscosity (298.15 K, 101.32 kPa, x1 = 0.323) was 1.932 ± 0.012 mPa·s. For the same compound, the viscosity (298.15 K, 101.32 kPa, x1 = 0.3802) was 1.854 ± 0.011 mPa·s, the viscosity (298.15 K, 101.32 kPa, x1 = 0.4499) was 1.745 ± 0.011 mPa·s and the viscosity (298.15 K, 101.32 kPa, x1 = 0.5367) was 1.623 ± 0.011 mPa·s. The viscosity (298.15 K, 101.32 kPa, x1 = 0.6479) was 1.43 ± 0.0097 mPa·s, the viscosity (298.15 K, 101.32 kPa, x1 = 0.7953) was 1.298 ± 0.0094 mPa·s and the viscosity (298.15 K, 101.32 kPa, x1 = 0.8686) was 1.263 ± 0.0094 mPa·s. For the same compound, the viscosity (298.15 K, 101.32 kPa, x1 = 0.9529) was 1.207 ± 0.0093 mPa·s, the viscosity (301.15 K, 101.32 kPa, x1 = 0.02221) was 0.9889 ± 0.0061 mPa·s and the viscosity (301.15 K, 101.32 kPa, x1 = 0.04863) was 1.179 ± 0.0072 mPa·s. For the same compound, the viscosity (301.15 K, 101.32 kPa, x1 = 0.08057) was 1.368 ± 0.0082 mPa·s, the viscosity (301.15 K, 101.32 kPa, x1 = 0.12) was 1.551 ± 0.0092 mPa·s and the viscosity (301.15 K, 101.32 kPa, x1 = 0.1698) was 1.725 ± 0.01 mPa·s. For the same compound, the viscosity (301.15 K, 101.32 kPa, x1 = 0.2347) was 1.836 ± 0.011 mPa·s, the viscosity (301.15 K, 101.32 kPa, x1 = 0.2949) was 1.808 ± 0.011 mPa·s and the viscosity (301.15 K, 101.32 kPa, x1 = 0.323) was 1.776 ± 0.011 mPa·s. The viscosity (301.15 K, 101.32 kPa, x1 = 0.3802) was 1.715 ± 0.011 mPa·s, the viscosity (301.15 K, 101.32 kPa, x1 = 0.4499) was 1.624 ± 0.01 mPa·s and the viscosity (301.15 K, 101.32 kPa, x1 = 0.5367) was 1.525 ± 0.0099 mPa·s. The viscosity (301.15 K, 101.32 kPa, x1 = 0.6479) was 1.335 ± 0.0091 mPa·s, the viscosity (301.15 K, 101.32 kPa, x1 = 0.7953) was 1.199 ± 0.0087 mPa·s and the viscosity (301.15 K, 101.32 kPa, x1 = 0.8686) was 1.164 ± 0.0087 mPa·s. It also gave a viscosity (301.15 K, 101.32 kPa, x1 = 0.9529) of 1.13 ± 0.0087 mPa·s, a viscosity (302.15 K, 101 kPa, x1 = 0.00206) of 0.8373 ± 0.0053 mPa·s and a viscosity (302.15 K, 101 kPa, x1 = 0.00628) of 0.8685 ± 0.0055 mPa·s. The viscosity (302.15 K, 101 kPa, x1 = 0.01516) was 0.9277 ± 0.0058 mPa·s, the viscosity (302.15 K, 101 kPa, x1 = 0.03482) was 1.055 ± 0.0065 mPa·s and the viscosity (302.15 K, 101 kPa, x1 = 0.05303) was 1.177 ± 0.0072 mPa·s. The viscosity (302.15 K, 101 kPa, x1 = 0.07366) was 1.304 ± 0.0079 mPa·s, the viscosity (302.15 K, 101 kPa, x1 = 0.08413) was 1.375 ± 0.0083 mPa·s and the viscosity (302.15 K, 101 kPa, x1 = 0.1114) was 1.518 ± 0.0091 mPa·s. It also gave a viscosity (302.15 K, 101 kPa, x1 = 0.1433) of 1.641 ± 0.0098 mPa·s, a viscosity (302.15 K, 101 kPa, x1 = 0.1726) of 1.715 ± 0.01 mPa·s and a viscosity (302.15 K, 101 kPa, x1 = 0.2065) of 1.762 ± 0.01 mPa·s. For the same compound, the viscosity (302.15 K, 101 kPa, x1 = 0.2501) was 1.76 ± 0.011 mPa·s, the viscosity (302.15 K, 101 kPa, x1 = 0.3029) was 1.753 ± 0.011 mPa·s and the viscosity (302.15 K, 101 kPa, x1 = 0.356) was 1.705 ± 0.011 mPa·s. The viscosity (302.15 K, 101 kPa, x1 = 0.4203) was 1.612 ± 0.01 mPa·s, the viscosity (302.15 K, 101 kPa, x1 = 0.4996) was 1.505 ± 0.0098 mPa·s and the viscosity (302.15 K, 101 kPa, x1 = 0.5367) was 1.459 ± 0.0096 mPa·s. For the same compound, the viscosity (302.15 K, 101 kPa, x1 = 0.5999) was 1.385 ± 0.0094 mPa·s, the viscosity (302.15 K, 101 kPa, x1 = 0.6479) was 1.332 ± 0.0092 mPa·s and the viscosity (302.15 K, 101 kPa, x1 = 0.7309) was 1.256 ± 0.0089 mPa·s. It also gave a viscosity (302.15 K, 101 kPa, x1 = 0.7621) of 1.231 ± 0.0088 mPa·s, a viscosity (302.15 K, 101 kPa, x1 = 0.7953) of 1.207 ± 0.0088 mPa·s and a viscosity (302.15 K, 101 kPa, x1 = 0.8686) of 1.16 ± 0.0087 mPa·s. It also gave a viscosity (302.15 K, 101 kPa, x1 = 0.9092) of 1.138 ± 0.0087 mPa·s, a viscosity (302.15 K, 101 kPa, x1 = 0.976) of 1.108 ± 0.0087 mPa·s and a viscosity (302.15 K, 101 kPa, x2 = 0.0145) of 1.104 ± 0.0087 mPa·s. It also gave a viscosity (303.15 K, 101.33 kPa, x1 = 0.0999) of 1.437 ± 0.088 mPa·s, a viscosity (303.15 K, 101.33 kPa, x1 = 0.1999) of 1.724 ± 0.098 mPa·s and a viscosity (303.15 K, 101.33 kPa, x1 = 0.2998) of 1.726 ± 0.1 mPa·s. For the same compound, the viscosity (303.15 K, 101.33 kPa, x1 = 0.3982) was 1.611 ± 0.096 mPa·s, the viscosity (303.15 K, 101.33 kPa, x1 = 0.4981) was 1.47 ± 0.089 mPa·s and the viscosity (303.15 K, 101.33 kPa, x1 = 0.5981) was 1.341 ± 0.082 mPa·s. The viscosity (303.15 K, 101.33 kPa, x1 = 0.6997) was 1.238 ± 0.076 mPa·s, the viscosity (303.15 K, 101.33 kPa, x1 = 0.7996) was 1.159 ± 0.072 mPa·s and the viscosity (303.15 K, 101.33 kPa, x1 = 0.9) was 1.107 ± 0.069 mPa·s. It also gave a viscosity (304.15 K, 101.32 kPa, x1 = 0.02221) of 0.9095 ± 0.0057 mPa·s, a viscosity (304.15 K, 101.32 kPa, x1 = 0.04863) of 1.079 ± 0.0066 mPa·s and a viscosity (304.15 K, 101.32 kPa, x1 = 0.08057) of 1.253 ± 0.0076 mPa·s. The viscosity (304.15 K, 101.32 kPa, x1 = 0.12) was 1.424 ± 0.0085 mPa·s, the viscosity (304.15 K, 101.32 kPa, x1 = 0.1698) was 1.577 ± 0.0094 mPa·s and the viscosity (304.15 K, 101.32 kPa, x1 = 0.2347) was 1.696 ± 0.01 mPa·s. The viscosity (304.15 K, 101.32 kPa, x1 = 0.2949) was 1.669 ± 0.01 mPa·s, the viscosity (304.15 K, 101.32 kPa, x1 = 0.323) was 1.635 ± 0.01 mPa·s and the viscosity (304.15 K, 101.32 kPa, x1 = 0.3802) was 1.581 ± 0.0098 mPa·s. It also gave a viscosity (304.15 K, 101.32 kPa, x1 = 0.4499) of 1.505 ± 0.0095 mPa·s, a viscosity (304.15 K, 101.32 kPa, x1 = 0.5367) of 1.422 ± 0.0093 mPa·s and a viscosity (304.15 K, 101.32 kPa, x1 = 0.6479) of 1.243 ± 0.0085 mPa·s. The viscosity (304.15 K, 101.32 kPa, x1 = 0.7953) was 1.121 ± 0.0082 mPa·s, the viscosity (304.15 K, 101.32 kPa, x1 = 0.8686) was 1.082 ± 0.0081 mPa·s and the viscosity (304.15 K, 101.32 kPa, x1 = 0.9529) was 1.055 ± 0.0082 mPa·s. For the same compound, the viscosity (306.15 K, 101 kPa, x1 = 0.00206) was 0.769 ± 0.0049 mPa·s, the viscosity (306.15 K, 101 kPa, x1 = 0.00628) was 0.7999 ± 0.0051 mPa·s and the viscosity (306.15 K, 101 kPa, x1 = 0.01516) was 0.8554 ± 0.0054 mPa·s. It also gave a viscosity (306.15 K, 101 kPa, x1 = 0.03482) of 0.9612 ± 0.006 mPa·s, a viscosity (306.15 K, 101 kPa, x1 = 0.05303) of 1.07 ± 0.0066 mPa·s and a viscosity (306.15 K, 101 kPa, x1 = 0.07366) of 1.189 ± 0.0073 mPa·s. The viscosity (306.15 K, 101 kPa, x1 = 0.08413) was 1.247 ± 0.0076 mPa·s.
